In experiment [1] the target is T1, His-DAP5 N86A mutant (human) (UniProt P78344).
T1 sequence: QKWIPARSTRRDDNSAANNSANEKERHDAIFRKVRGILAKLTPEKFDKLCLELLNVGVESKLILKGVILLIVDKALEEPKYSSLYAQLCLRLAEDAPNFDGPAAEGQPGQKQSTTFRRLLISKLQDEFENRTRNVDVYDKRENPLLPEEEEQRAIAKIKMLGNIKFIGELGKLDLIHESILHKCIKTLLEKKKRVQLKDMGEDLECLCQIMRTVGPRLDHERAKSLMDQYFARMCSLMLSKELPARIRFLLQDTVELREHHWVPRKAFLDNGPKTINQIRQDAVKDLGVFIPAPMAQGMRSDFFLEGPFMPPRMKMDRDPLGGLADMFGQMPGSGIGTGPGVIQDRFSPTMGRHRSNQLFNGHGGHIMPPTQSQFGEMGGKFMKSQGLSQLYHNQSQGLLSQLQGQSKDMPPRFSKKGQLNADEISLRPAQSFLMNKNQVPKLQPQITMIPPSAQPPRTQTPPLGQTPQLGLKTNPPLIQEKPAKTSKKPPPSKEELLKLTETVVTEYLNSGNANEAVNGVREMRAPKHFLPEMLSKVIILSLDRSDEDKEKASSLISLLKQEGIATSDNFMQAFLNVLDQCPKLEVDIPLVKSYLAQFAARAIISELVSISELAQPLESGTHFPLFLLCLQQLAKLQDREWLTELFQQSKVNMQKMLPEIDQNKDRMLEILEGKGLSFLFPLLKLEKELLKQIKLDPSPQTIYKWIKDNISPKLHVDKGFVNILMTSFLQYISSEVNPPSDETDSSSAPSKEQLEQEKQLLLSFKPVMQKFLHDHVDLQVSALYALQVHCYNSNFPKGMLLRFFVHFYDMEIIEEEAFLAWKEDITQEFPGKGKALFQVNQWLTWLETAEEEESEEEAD
Briefly: pull-down; 600 ng His-DAP5 added to 30 μl nuclease treated RRL, 10 min at 30°C; Ni-NTA beads 3 h at 4°C in IP buffer (25 mM HEPES-KOH pH 7.3, 20 mM KCl, 75 mM KOAc, 2 mM MgCl2, 10 mM imidazole, 0.3% CHAPS); western blot; only the target purified. Background: In western blotting, separated proteins are transferred to a membrane and probed.

Amino acid sequences for entries named in this document (tags omitted).
UniProt P41035: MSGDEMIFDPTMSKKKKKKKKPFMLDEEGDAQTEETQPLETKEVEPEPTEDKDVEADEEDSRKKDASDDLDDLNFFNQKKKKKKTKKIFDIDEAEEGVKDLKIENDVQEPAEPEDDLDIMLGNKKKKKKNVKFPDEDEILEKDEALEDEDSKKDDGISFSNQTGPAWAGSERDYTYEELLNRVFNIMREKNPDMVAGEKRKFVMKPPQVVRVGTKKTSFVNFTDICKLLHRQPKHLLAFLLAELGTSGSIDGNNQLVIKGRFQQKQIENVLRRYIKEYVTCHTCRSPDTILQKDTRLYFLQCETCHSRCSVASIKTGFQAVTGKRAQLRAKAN
UniProt P60842: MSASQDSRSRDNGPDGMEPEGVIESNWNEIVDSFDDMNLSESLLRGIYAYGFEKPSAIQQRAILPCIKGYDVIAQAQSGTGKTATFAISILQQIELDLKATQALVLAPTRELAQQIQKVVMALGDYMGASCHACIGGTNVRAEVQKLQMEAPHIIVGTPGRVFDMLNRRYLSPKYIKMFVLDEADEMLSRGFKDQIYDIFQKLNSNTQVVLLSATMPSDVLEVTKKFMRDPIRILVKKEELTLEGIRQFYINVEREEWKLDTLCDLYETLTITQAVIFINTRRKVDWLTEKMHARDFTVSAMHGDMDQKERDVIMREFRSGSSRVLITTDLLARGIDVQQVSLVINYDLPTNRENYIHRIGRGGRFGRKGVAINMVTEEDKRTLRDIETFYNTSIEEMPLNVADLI
UniProt P29562: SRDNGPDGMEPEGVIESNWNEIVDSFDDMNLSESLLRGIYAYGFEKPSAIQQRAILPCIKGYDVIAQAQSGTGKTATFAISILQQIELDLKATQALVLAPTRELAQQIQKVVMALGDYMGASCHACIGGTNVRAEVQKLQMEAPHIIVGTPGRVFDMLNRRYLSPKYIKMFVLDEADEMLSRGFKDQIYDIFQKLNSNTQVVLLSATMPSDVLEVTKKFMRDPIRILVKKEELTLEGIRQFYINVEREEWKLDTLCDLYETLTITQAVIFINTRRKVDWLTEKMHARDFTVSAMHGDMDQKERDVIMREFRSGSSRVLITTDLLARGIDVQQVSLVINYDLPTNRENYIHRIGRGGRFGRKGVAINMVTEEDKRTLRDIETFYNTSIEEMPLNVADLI
UniProt P20042: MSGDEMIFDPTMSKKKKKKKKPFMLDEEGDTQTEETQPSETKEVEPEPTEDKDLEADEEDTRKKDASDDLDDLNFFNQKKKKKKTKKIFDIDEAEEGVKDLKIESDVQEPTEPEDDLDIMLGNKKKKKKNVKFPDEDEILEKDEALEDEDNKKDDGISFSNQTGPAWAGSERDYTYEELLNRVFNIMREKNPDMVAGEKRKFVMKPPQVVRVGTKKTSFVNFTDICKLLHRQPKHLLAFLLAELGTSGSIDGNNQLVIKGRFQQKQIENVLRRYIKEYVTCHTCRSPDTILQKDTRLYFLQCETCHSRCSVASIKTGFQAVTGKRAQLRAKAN

The target in experiment [2] is T2, His-DAP5 WT (48-907) (human) (UniProt P78344).
T2 sequence: T1 sequence with A39N
The experiment is described as above.

The target of experiment [3] is T2, His-DAP5 WT (48-907) (human). Nature of the experiment: pull-down; 100 μg His-DAP5 with 25 μl Ni-NTA Superflow resin and 100 μg purified eIF4AI (~2-fold molar excess), 30 min on ice, 25 mM Tris-HCl pH 8.0, 150 mM NaCl, 60 mM imidazole, 1 mM DTT, 5% glycerol; Coomassie staining; both purified.
Experiment [4] has as its target T1, His-DAP5 N86A mutant (human). Nature of the experiment: condition: 100 μg eIF4AI (~2-fold molar excess) in 100 μl; pull-down; 100 μg His-DAP5 with 25 μl Ni-NTA Superflow resin and 100 μg purified eIF4AI (~2-fold molar excess), 30 min on ice, 25 mM Tris-HCl pH 8.0, 150 mM NaCl, 60 mM imidazole, 1 mM DTT, 5% glycerol; Coomassie staining; both purified.
Experiment [5] deals with T3, Flag-DAP5 (wild type) (human) (UniProt P78344).
T3 sequence: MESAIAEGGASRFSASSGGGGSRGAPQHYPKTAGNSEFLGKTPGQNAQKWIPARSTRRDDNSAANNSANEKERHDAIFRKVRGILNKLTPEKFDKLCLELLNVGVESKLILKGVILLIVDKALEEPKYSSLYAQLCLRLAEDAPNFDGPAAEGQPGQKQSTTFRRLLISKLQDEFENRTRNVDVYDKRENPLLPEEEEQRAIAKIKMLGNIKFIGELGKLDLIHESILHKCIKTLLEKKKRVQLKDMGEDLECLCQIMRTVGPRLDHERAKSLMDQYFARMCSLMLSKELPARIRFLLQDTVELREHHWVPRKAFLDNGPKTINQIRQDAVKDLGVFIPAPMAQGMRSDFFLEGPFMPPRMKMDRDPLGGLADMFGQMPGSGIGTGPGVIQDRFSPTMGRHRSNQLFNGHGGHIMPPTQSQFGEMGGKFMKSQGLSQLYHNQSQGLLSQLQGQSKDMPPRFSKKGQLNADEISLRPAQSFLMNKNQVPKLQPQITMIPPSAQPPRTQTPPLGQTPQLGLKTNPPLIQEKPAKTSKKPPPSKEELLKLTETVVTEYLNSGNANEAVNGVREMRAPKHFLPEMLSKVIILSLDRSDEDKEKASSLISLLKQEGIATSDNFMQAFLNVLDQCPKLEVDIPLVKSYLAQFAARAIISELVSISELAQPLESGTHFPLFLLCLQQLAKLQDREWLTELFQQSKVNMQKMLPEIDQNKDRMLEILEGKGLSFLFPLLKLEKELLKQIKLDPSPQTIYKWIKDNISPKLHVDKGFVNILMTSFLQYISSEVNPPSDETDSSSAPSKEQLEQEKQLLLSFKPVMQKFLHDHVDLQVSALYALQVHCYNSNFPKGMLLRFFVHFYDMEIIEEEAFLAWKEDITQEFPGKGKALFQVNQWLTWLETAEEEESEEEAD
Nature of the experiment: co-IP; HEK293T transfected 24 h with Flag-tagged DAP5 constructs; lysis in buffer B (20 mM HEPES-KOH pH 7.6, 100 mM KCl, 0.5 mM EDTA, 0.4% NP-40, 20% glycerol); anti-Flag-conjugated beads, elution with Flag peptide; western blot of endogenous factors.

Another experiment deals with T4, Flag-DAP5 N86A (human) (UniProt P78344).
T4 sequence: T3 sequence with N86A
Described as above.

Positions count from the first letter of the chain named. No constants are given. Whether binding was seen depends on the method and setting. For some assays here: In cells and extracts the contact can be indirect. Some binding calls cover weakened binding; strength is not graded here. Where a sequence is shown, tags or fusion partners need not be part of it.

With “eIF2β of rabbit reticulocyte lysate (from UniProt P41035 1-333)”, the binding entry in experiment [1] and in experiment [2] was “binds” throughout.
With “purified eIF4AI (from UniProt P60842 1-406)”, the binding entry in experiment [3] is recorded as “binds”; in experiment [4], “no binding”.
“eIF4AI of rabbit reticulocyte lysate (from UniProt P29562 1-398)”: the binding entry is “no binding” in experiment [1] and “binds” in experiment [2].
Turning to eIF2β (from UniProt P20042 1-333), the binding result (in experiment [5]; with Flag-DAP5 N86A (human)) was “binds” each time.

The values above are taken from article PMC4402527.
